From the supplement of paper PMC12217912
Some of the results follow. Sequences were assembled here from the parent chain. Values near 0.05 are background.

B1: TEV protease; numbered along this chain (parent)
chain: MGESLFKGPRDYNPISSSICHLTNESDGHTTSLYGIGFGPFIITNKHLFRRNNGTLVVQSLHGVFKVKDTTTLQQHLVDGRDMIIIRMPKDFPPFPQKLKFREPQREERICLVTTNFQTKSMSSMVSDTSCTFPSGDGIFWKHWIQTKDGQCGSPLVSTRDGFIVGIHSASNFTNTNNYFTSVPKNFMELLTNQEAQQWVSGWRLNADSVLWGGHKVFMVKPEEPFQPVKEATQL

Variants of: B1
Experiment: raw area under fraction-flipped curve 0-4 h after induction (AUC4h, not background-subtracted), DNA-recorder readout of cleavage of the substrate (dimensionless); higher = more cleavage of the substrate by the protease variant
Conditions: temperature: 34 °C; time window: 0-4 h after rhamnose induction
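Note: Bxb1 expression induced with 0.2% (w/v) L-rhamnose at OD600 near 0.5, cultures sampled hourly, flipped fraction per protease–substrate barcode pair counted by paired-end Illumina sequencing.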

Variant | area with substrate ENLYFGS | area with substrate ENLYFIS | area with substrate ENLYFKS | area with substrate ENLYFMS | area with substrate ENLYFNS | area with substrate ENLYFPS | area with substrate ENLYFRS | area with substrate ENLYFTS | area with substrate ENLYFWS | area with substrate ENLYFYS
L73D | 0.0442 | 0.055 | 0.0582 | 0.0531 | 0.0562 | 0.0495 | 0.0318 | 0.0617 | 0.0468 | 0.066
L191S | – | 0.0596 | – | 0.0353 | 0.0528 | – | – | 0.0592 | 0.0371 | 0.0181
L99G | 0.0699 | – | 0.0658 | – | 0.0569 | 0.0715 | – | – | – | –
N193L | 0.0382 | 0.0526 | 0.0378 | 0.0703 | – | – | 0.0568 | 0.0387 | 0.0488 | 0.0638
D79P | – | 0.0679 | – | – | – | 0.0865 | – | – | – | –
Q59P | – | 0.0312 | – | 0.0449 | – | 0.035 | – | 0.037 | 0.0364 | 0.0379
Q59L | – | 0.0463 | 0.043 | 0.0831 | 0.0545 | 0.0488 | – | – | 0.0639 | –
V78R | – | – | 0.031 | 0.0528 | – | 0.0478 | 0.0391 | 0.0511 | – | –
T159N | – | 0.0582 | – | 0.0767 | – | 0.0749 | 0.0565 | 0.0647 | 0.0541 | –
D208P | 0.0575 | 0.0564 | – | 0.0517 | 0.0647 | – | 0.0584 | 0.0593 | 0.0461 | 0.0491
L205I | – | 0.0609 | – | – | 0.0315 | – | 0.0508 | 0.0575 | 0.0783 | 0.0702
T147K | – | 0.0565 | – | – | 0.072 | 0.06 | 0.0876 | 0.0631 | – | –
V217Y | 0.0684 | 0.0558 | 0.0837 | 0.0663 | – | 0.0554 | 0.0659 | 0.0519 | 0.0832 | –
V217I | – | 0.0532 | – | – | 0.0645 | – | 0.0551 | 0.0593 | – | –
D69K | – | 0.0604 | 0.066 | 0.0748 | 0.0754 | – | 0.0348 | – | – | –

Same assay, conditions: temperature: 34 °C; time window: 0-4 h after rhamnose induction

Variant | area with substrate ENLYFES | area with substrate ENLYFVS | area with substrate ENLYFFS | area with substrate ENLYFSS | area with substrate ENLYFLS | area with substrate ENLYFHS
L191S | 0.0642 | 0.0555 | – | – | – | –
L99G | – | 0.0521 | 0.0569 | 0.0488 | – | –
N193L | – | 0.0509 | – | – | 0.0697 | –
D79P | 0.0652 | – | 0.0513 | – | – | –
Q59P | – | 0.0404 | – | – | 0.0315 | 0.0494
Q59L | – | 0.0641 | 0.0734 | – | – | 0.0507
V78R | 0.0496 | 0.0625 | 0.0867 | 0.0465 | 0.0494 | 0.0611
T159N | – | – | – | – | 0.0573 | –
D208P | – | – | 0.0679 | – | 0.0573 | 0.0678
L205I | 0.0609 | 0.0544 | 0.0497 | – | – | –
T147K | 0.0497 | – | 0.0609 | – | – | –
V217Y | 0.0618 | 0.0622 | 0.0788 | 0.0694 | – | –
V217I | 0.0675 | – | 0.0723 | 0.0536 | 0.0766 | 0.0705
D69K | 0.0576 | 0.0616 | – | – | – | –
